PubChem BioAssay AID504333 (National Center for Advancing Translational Sciences (NCATS), 2011)
The campaign covered roughly 360,000 compounds. About 16,000 (4.4%) were called active. Inconclusive results, whose numbers are uncertain, are shown with a selection of clear calls. The call rests on the fitted dose curve; in most records, active means well fitted inhibition curve with a large enough effect; inconclusive means small, poorly fitted or top-dose-only effect; inactive means no such curve, though single readings can be large or run the other way. Where the call is inconclusive, the potency comes from a doubtful curve fit.
Further: nearly all actives have a fitted effect of over 60% in size.
On the % scale 0 is the no-effect control and ±100 the full control effect; potency means the concentration at half of the fitted maximal effect; tags describe the fitted curve by direction and shape.

What follows are compounds tested against Bromodomain adjacent to zinc finger domain protein 2B (Homo sapiens) (UniProt Q9UIF8) (assay: qHTS Assay for Inhibitors of BAZ2B). Conditions: AlphaScreen BAZ2B-H3K14Ac peptide displacement; activity change, negative = inhibition: at 114 µM (top of the series).
Chain of UniProt Q9UIF8 (Q9UIF8 whole entry, looked up, the tested form may be a part): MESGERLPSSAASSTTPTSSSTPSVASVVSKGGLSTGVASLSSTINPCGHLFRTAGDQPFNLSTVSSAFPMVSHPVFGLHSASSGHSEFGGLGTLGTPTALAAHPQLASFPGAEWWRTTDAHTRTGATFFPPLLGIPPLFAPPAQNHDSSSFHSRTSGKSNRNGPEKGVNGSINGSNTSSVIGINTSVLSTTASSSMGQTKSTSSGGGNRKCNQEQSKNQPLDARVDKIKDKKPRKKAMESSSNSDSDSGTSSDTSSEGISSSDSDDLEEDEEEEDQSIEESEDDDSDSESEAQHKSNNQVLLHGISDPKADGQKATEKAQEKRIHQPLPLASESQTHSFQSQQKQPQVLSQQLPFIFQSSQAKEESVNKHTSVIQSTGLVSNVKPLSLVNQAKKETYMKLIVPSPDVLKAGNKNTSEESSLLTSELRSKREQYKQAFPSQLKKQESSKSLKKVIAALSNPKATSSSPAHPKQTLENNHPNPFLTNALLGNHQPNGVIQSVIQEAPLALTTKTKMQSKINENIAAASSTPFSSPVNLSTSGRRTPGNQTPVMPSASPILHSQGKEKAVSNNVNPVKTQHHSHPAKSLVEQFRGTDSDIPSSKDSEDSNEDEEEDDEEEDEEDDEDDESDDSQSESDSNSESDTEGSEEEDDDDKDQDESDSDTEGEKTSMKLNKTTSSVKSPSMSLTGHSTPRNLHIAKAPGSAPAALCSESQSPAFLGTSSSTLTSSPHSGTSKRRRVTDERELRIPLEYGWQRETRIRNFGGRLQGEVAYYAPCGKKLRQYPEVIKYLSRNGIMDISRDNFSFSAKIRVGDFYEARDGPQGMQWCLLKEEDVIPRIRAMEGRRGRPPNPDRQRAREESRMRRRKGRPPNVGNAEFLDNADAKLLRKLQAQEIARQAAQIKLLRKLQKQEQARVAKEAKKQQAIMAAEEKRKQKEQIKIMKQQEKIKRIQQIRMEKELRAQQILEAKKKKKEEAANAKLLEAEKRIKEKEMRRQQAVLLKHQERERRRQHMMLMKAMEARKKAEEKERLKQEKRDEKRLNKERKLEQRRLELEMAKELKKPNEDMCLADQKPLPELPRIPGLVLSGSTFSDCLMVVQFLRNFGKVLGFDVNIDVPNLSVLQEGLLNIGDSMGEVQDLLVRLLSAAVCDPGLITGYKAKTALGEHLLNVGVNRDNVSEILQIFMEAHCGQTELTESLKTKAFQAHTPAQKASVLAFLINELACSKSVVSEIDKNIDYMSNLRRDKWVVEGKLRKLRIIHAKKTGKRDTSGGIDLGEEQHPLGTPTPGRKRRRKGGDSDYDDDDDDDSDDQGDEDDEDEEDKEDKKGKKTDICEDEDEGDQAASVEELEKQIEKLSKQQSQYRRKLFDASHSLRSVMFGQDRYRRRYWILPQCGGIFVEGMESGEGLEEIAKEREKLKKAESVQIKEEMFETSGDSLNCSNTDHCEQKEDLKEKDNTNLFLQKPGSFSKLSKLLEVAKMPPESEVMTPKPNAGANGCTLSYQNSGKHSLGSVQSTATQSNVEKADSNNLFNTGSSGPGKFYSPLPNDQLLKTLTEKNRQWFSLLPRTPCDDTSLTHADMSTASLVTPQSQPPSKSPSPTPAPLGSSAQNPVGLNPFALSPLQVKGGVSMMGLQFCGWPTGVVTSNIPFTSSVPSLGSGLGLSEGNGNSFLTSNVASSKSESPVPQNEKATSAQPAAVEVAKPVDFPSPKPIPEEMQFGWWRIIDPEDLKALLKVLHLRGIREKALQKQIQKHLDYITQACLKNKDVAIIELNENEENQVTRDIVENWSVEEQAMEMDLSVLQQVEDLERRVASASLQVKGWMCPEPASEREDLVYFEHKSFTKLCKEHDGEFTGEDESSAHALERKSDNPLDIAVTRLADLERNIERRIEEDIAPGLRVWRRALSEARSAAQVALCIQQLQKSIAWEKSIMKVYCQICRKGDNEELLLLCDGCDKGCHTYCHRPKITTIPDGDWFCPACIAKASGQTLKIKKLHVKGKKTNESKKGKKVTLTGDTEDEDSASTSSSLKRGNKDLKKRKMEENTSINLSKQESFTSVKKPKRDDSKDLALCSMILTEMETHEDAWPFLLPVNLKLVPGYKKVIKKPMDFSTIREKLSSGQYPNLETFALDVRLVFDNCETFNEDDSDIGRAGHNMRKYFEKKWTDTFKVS
Method in brief: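 BAZ2B (50 nM) with biotin-H3(5-23)K14Ac peptide (50 nM) in PBS pH 7.4, 0.01% Tween-20, preformed 30 min, then compound 30 min at room temperature; top concentration 110uM. AlphaScreen streptavidin donor/nickel chelate acceptor beads (10 ug/mL final), 20 min dark, signal read.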
`COc1ccc(N2CC3=C(C2=O)C(c2ccc(O)c(OC)c2)NC(=O)N3C)cc1` (configuration not stated) was tested, and the “activity change, negative = inhibition” value was inactive: -17.8%.
`Nc1cccnc1Oc1ccccc1F` was tested, and the “activity change, negative = inhibition” value was inactive: -4.5%.
For `O=C1c2ccccc2C(=O)N1Cc1cc(Cl)c(O)c([N+](=O)[O-])c1`, the Potency was inconclusive: 70.8 µM [inhibitor, single point].
`CN(C)C=NC(=O)c1ccc([N+](=O)[O-])c(CS(=O)(=O)c2ccc(Cl)cc2)c1` was tested, and the Potency was inconclusive: 44.7 µM [inhibitor, partial curve].
`O=C(c1ccc(CS(=O)c2ccccc2Cl)o1)N1CCN(c2ccccc2)CC1` (configuration not stated) was tested, and the Potency was inconclusive: 56.2 µM [inhibitor, partial curve].
For `O=C(Nc1ccc(-c2nc3ccccc3s2)c(O)c1)C1=COCCO1`, the Potency was inconclusive: 89.1 µM [inhibitor, single point].
For `COc1cccc(CNC(=O)c2sc3nc4n(c(=O)c3c2C)CCC4)c1`, the “activity change, negative = inhibition” value was inactive: -20.4%.
With `CC(C)N1CCc2c(sc(NC(=O)c3ccc([N+](=O)[O-])o3)c2C(N)=O)C1` the Potency was inconclusive: 50.1 µM [inhibitor, partial curve].
`CCCCCC(=O)Nc1c(-c2cccs2)c(=O)c2ccccc2n1C` was tested, and the “activity change, negative = inhibition” value was inactive: 35.5%.
In the case of `COc1ccccc1N1CC=C(c2cccc([N+](=O)[O-])c2)NC1=O`, the “activity change, negative = inhibition” value is reported as inactive: -20.2%.
In the case of `CCOC(=O)C1=C(N)Oc2cc(O)ccc2C1c1cccc(Cl)c1` (configuration not stated), the Potency is reported as inconclusive: 63.1 µM [inhibitor, partial curve].
In the case of `CCO/C=C/C(O)(CNC(=O)COc1ccccc1F)C(F)(F)F` (configuration not stated), the “activity change, negative = inhibition” value is reported as inactive: 9.37%.
For `O=S(=O)(c1ccc(-c2n[nH]c(=S)o2)cc1)N1CCCCC1`, the Potency was inconclusive: 79.4 µM [inhibitor, single point].
For `CC(=O)Nc1ccc(OCCOc2ccc([N+](=O)[O-])cc2)cc1`, the “activity change, negative = inhibition” value was inactive: -14.3%.
For `COc1ccc(S(=O)(=O)Nc2ccccc2C(=O)Nc2nc(-c3ccc(F)cc3)cs2)cc1OC`, the Potency was inconclusive: 89.1 µM [inhibitor, single point].
`Cc1ccc(NC(=O)c2nc[nH]c2C(=O)NCC(=O)OC(C)(C)C)cc1` was tested, and the Potency was inconclusive: 79.4 µM [inhibitor, partial curve].
In the case of `Nc1ccc(-c2nc3ccc(C(=O)O)cc3s2)cc1`, the “activity change, negative = inhibition” value is reported as inactive: 2.14%.
In the case of `O=C(CSc1nc2c(c(=O)n1-c1ccc(Cl)cc1)SCC2)NCc1ccco1`, the Potency is reported as inconclusive: 50.1 µM [inhibitor, partial curve].
In the case of `CCN1CCC(Nc2ccnc3cc(Cl)ccc23)CC1`, the “activity change, negative = inhibition” value is reported as inactive: -10.1%.
`O=C(c1ccccc1)c1cccn1CC(=O)N1CCN(c2ccc(F)cc2)CC1` was tested, and the Potency was inconclusive: 50.1 µM [inhibitor, partial curve].
In the case of `CCn1ccnc1CN(C)Cc1cn(-c2ccccc2)nc1-c1ccc(OC)cc1F`, the “activity change, negative = inhibition” value is reported as inactive: -31.3%.
For `COc1ccc(N2CCCC2)c(NC(=O)c2ccc(Br)o2)c1`, the Potency was inconclusive: 44.7 µM [inhibitor, partial curve].
`Cc1ccccc1NC(=O)CN1CCN(C)CC1` was tested, and the Potency was active: 28.2 µM.
With `Cc1cccc(-n2[nH]c3c4c(ccc3c2=O)C(=O)c2ccccc2C4=O)c1` the Potency was inconclusive: 3.98 µM [inhibitor, full curve, poor fit].
`CCSc1nnc(NC(=O)C2CC(=O)N(Cc3ccc(C)cc3)C2)s1` (configuration not stated) was tested, and the “activity change, negative = inhibition” value was inactive: -14.5%.
With `CC(=O)C(Cc1ccccc1)NC(=O)CN1CCN(Cc2ccccc2)CC1` (configuration not stated) the “activity change, negative = inhibition” value was inactive: -15.6%.
With `COC(=O)c1sccc1NC(=O)c1cc(OC)cc(OC)c1` the “activity change, negative = inhibition” value was inactive: 4.94%.
In the case of `Cc1cc2c(N)cccc2nn1`, the Potency is reported as active: 79.4 µM.
With `C#CCOCCOCCOCCNc1nc(N2CCOCC2)nc(N2CCN(C(=O)[C@H](Cc3cc4ccccc4[nH]3)n3cc([C@@H](N)Cc4ccc(O)cc4)nn3)CC2)n1` the Potency was inconclusive: 50.1 µM [inhibitor, partial curve].
With `CCOC(=O)c1cc(-c2ccc(OC)cc2)n(CCC(=O)NCc2ccccc2OC)c1C` the Potency was inconclusive: 63.1 µM [inhibitor, partial curve].
With `Cc1cc(S(=O)(=O)Nc2cc3c(cc2NCc2ccccc2)n(C)c(=O)n3C)ccc1F` the Potency was inconclusive: 44.7 µM [inhibitor, partial curve].
In the case of `O=C(CSCc1ccc(F)cc1)N1CCc2c([nH]c3ccccc23)C1c1ccc(F)cc1` (configuration not stated), the “activity change, negative = inhibition” value is reported as inactive: -26.8%.
`CCN(CC)CCC#CC1(O)c2ccccc2-c2ccccc21` was tested, and the Potency was inconclusive: 89.1 µM [inhibitor, single point].
With `COc1ccc(-c2cc3c(=O)n(CC(=O)Nc4ccc(Br)c(C)c4)ccn3n2)cc1OC` the “activity change, negative = inhibition” value was inactive: -0.464%.
`Cc1ccc(OCC(=O)Nc2sc3c(c2C#N)CCC3)cc1C` was tested, and the Potency was inconclusive: 89.1 µM [inhibitor, single point].
For `CCCCC(CC)CNC(=O)c1ncn[nH]1` (configuration not stated), the Potency was inconclusive: 70.8 µM [inhibitor, single point].
In the case of `Cc1sc(N/N=C/c2cccnc2)nc1-c1ccccc1`, the Potency is reported as inconclusive: 39.8 µM [inhibitor, partial curve].
In the case of `O=C(O)c1ccc(N/N=C/C=C/c2ccccc2)cc1`, the Potency is reported as inconclusive: 50.1 µM [inhibitor, partial curve].
`CCN(CC)S(=O)(=O)c1ccc(NCCCn2ccnc2)c([N+](=O)[O-])c1` was tested, and the Potency was inconclusive: 79.4 µM [inhibitor, single point].
For `COc1cc(/C=N/NS(=O)(=O)c2ccc(C)c([N+](=O)[O-])c2)cc([N+](=O)[O-])c1O`, the Potency was active: 50.1 µM.
For `CCN(CC(=O)Nc1ccccc1C(F)(F)F)C(=O)c1ccccc1Cc1ccccc1`, the “activity change, negative = inhibition” value was inactive: 15.1%.
In the case of `OC(CSc1c(Cl)cccc1Cl)CN1CCN(c2ccc(F)cc2)CC1` (configuration not stated), the Potency is reported as inconclusive: 39.8 µM [inhibitor, full curve].
In the case of `O=C(/C=C/c1ccco1)OCC(=O)c1ccc(OC(F)F)cc1`, the “activity change, negative = inhibition” value is reported as inactive: -2.29%.
With `COC(=O)N1CCN(c2ccc(C(C)=O)cc2)CC1` the “activity change, negative = inhibition” value was inactive: -5.36%.
For `CCCC(=O)NC(c1ccco1)c1cc([N+](=O)[O-])c2cccnc2c1O` (configuration not stated), the Potency was active: 7.94 µM.
In the case of `O=[N+]([O-])c1ccc(C(=S)N2CCCC2)cc1`, the Potency is reported as inconclusive: 70.8 µM [inhibitor, single point].
With `CCOc1ccc2nc(NS(=O)(=O)c3ccc4c(c3)n(C)c(=O)n4C)sc2c1` the Potency was active: 56.2 µM.
In the case of `CCOC(=O)N1CCN(S(=O)(=O)c2ccc(C(=O)NNc3nc4c(C)cccc4s3)cc2)CC1`, the Potency is reported as inconclusive: 22.4 µM [inhibitor, full curve].
In the case of `CCCCn1c(=O)c(CCC(=O)OC(C)C(=O)Nc2cccc(Cl)c2Cl)nc2ccccc21` (configuration not stated), the “activity change, negative = inhibition” value is reported as inactive: 5.26%.
With `O=C(NCc1ccc(F)cc1)C1CCC(CNS(=O)(=O)c2ccccc2)CC1` (configuration not stated) the “activity change, negative = inhibition” value was inactive: -0.0747%.
With `Cc1c(C(=O)Nc2cccc(C(F)(F)F)c2)oc2ccc(S(=O)(=O)N3CCC4(CC3)OCCO4)cc12` the “activity change, negative = inhibition” value was inactive: 8.13%.
In the case of `Cc1cccc(OCCCN2CCOCC2)c1C`, the Potency is reported as inconclusive: 89.1 µM [inhibitor, single point].
For `COc1ccc(NC(=S)NC(NC(C)=O)C(Cl)(Cl)Cl)c([N+](=O)[O-])c1` (configuration not stated), the “activity change, negative = inhibition” value was inactive: -6.33%.
With `O=C(c1cc(Sc2ccc(Cl)cc2)nc2ccccc12)N1CCN(c2ccccn2)CC1` the Potency was inconclusive: 35.5 µM [inhibitor, partial curve].
`COc1ccc2c(C(=O)c3ccc(C)cc3)n(Cc3ccc(C(N)=O)cc3)[n+]([O-])c2c1` was tested, and the Potency was inconclusive: 79.4 µM [inhibitor, single point].
For `COc1ccc(/C=N/NC(=O)c2ccc(F)cc2)cc1CN1CCc2cc(OC)c(OC)cc2C1C` (configuration not stated), the Potency was inconclusive: 89.1 µM [inhibitor, single point].
`O=C(CCN1C(=O)/C(=C/c2ccccc2Cl)SC1=S)N1CCOCC1` was tested, and the Potency was inconclusive: 89.1 µM [inhibitor, single point].
In the case of `CN1CCN(CC(=O)c2ccccc2F)CC1`, the Potency is reported as active: 22.4 µM.
In the case of `Cc1ccc(N(C)S(=O)(=O)c2ccc3[nH]c4c(c3c2)CCCC4)cc1`, the Potency is reported as inconclusive: 44.7 µM [inhibitor, partial curve].
`Cc1ccc(C)c(Oc2cc(NC(=O)CCCn3nc(C)c([N+](=O)[O-])c3C)cc([N+](=O)[O-])c2)c1` was tested, and the Potency was inconclusive: 39.8 µM [inhibitor, partial curve].
`CCN(CC)S(=O)(=O)c1cc(NC(=O)COc2ccc(C#N)cc2OC)ccc1C` was tested, and the “activity change, negative = inhibition” value was inactive: 8.46%.
For `O=C(NC1CCSC1=O)c1ccc(Cl)cc1` (configuration not stated), the Potency was inconclusive: 3.55 µM [inhibitor, full curve].
`O=C(CSc1ccccc1)NCc1ccc2c(c1)CCN2C(=O)c1ccc(Cl)cc1` was tested, and the “activity change, negative = inhibition” value was inactive: 6.94%.
`CC(C)(C)c1cc(C(=O)N/N=C/c2ccc(-c3ccccc3[N+](=O)[O-])o2)n[nH]1` was tested, and the Potency was inconclusive: 39.8 µM [inhibitor, partial curve].
For `COC(=O)C1=C(C)N(Cc2ccccc2)C(=NCc2ccccc2)N[C@H]1c1cccc(F)c1`, the Potency was inconclusive: 89.1 µM [inhibitor, single point].
In the case of `O=C(Nc1cccc([N+](=O)[O-])c1)c1ccc2nc(N3C(=O)CCC3=O)sc2c1`, the Potency is reported as inconclusive: 100 µM [inhibitor, single point].
With `Brc1ccc(C=Nc2ccc(Nc3ccccc3)cc2)s1` the Potency was active: 39.8 µM.
With `COc1ccc2[nH]c(C)c(CCNC(=S)Nc3cccc(C)c3)c2c1` the Potency was active: 35.5 µM.
`COc1ccc(N2C(=O)C(Cl)=C(N3CCCC3)C2=O)cc1` was tested, and the Potency was inconclusive: 79.4 µM [inhibitor, single point].
In the case of `COc1ccc(OC)c(C(C[N+](=O)[O-])c2c(C)cc3ccccn23)c1` (configuration not stated), the Potency is reported as inconclusive: 39.8 µM [inhibitor, partial curve].
`N#Cc1ccc(NC(=O)Cn2c3[n+](c4ccc(C(F)(F)F)cc42)CCCCC3)cc1` was tested, and the “activity change, negative = inhibition” value was inactive: -13.1%.
For `COc1ccc(Nc2cc(C(=O)N3CCc4ccccc4C3)c3ccccc3n2)c(OC)c1`, the Potency was inconclusive: 22.4 µM [inhibitor, full curve].
